From the supplement of paper PMC8728848
This is one part of the list.

How the values were obtained:
Assay in all cases: glycan array binding signal (z-score within array); higher = stronger binding
Conditions in all cases: glycan notation: IUPAC condensed, linker removed
[1] = molecular target: Man(a1-2)Man(a1-3)[Man(a1-2)Man(a1-6)]Man(a1-6)[Man(a1-2)Man(a1-2)Man(a1-3)]Man(b1-4)GlcNAc(b1-4)GlcNAc
Method in brief: (§1)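 Glycan array data were curated from 3228 arrays in the Consortium for Functional Glycomics database and kept only where the protein sequence was available. Glycan names were converted to IUPAC-condensed notation, and columns mapping to the same glycan were averaged. The binding signal is a within-array Z-score, averaged across arrays of the same protein sequence at different concentrations or buffers and across linkers. Negative Z-scores can be read as non-binding.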

[2] = molecular target: Man(a1-2)Man(a1-3)[Man(a1-6)]Man(a1-6)[Man(a1-2)Man(a1-3)]Man(b1-4)GlcNAc(b1-4)GlcNAc
Method in brief: as §1

[3] = molecular target: Man(a1-2)Man(a1-6)[Man(a1-3)]Man(a1-6)[Man(a1-2)Man(a1-2)Man(a1-3)]Man
Method in brief: as §1

[4] = molecular target: Man(a1-2)Man(a1-6)[Man(a1-3)]Man(a1-6)[Man(a1-2)Man(a1-2)Man(a1-3)]Man(b1-4)GlcNAc(b1-4)GlcNAc
Method in brief: as §1

Man(a1-3)[Man(a1-6)]Man = molecular target: Man(a1-3)[Man(a1-6)]Man
Method in brief: as §1

[5] = molecular target: Man(a1-3)[Man(a1-6)]Man(a1-6)[Man(a1-2)Man(a1-3)]Man(b1-4)GlcNAc(b1-4)GlcNAc
Method in brief: as §1

[6] = molecular target: Man(a1-3)[Man(a1-6)]Man(a1-6)[Man(a1-3)]Man
Method in brief: as §1

[7] = molecular target: Man(a1-3)[Man(a1-6)]Man(a1-6)[Man(a1-3)]Man(b1-4)GlcNAc(b1-4)GlcNAc
Method in brief: as §1

[8] = molecular target: Man(a1-3)[Man(a1-6)]Man(b1-4)GlcNAc(b1-4)GlcNAc
Method in brief: as §1

Man(a1-6)Man = molecular target: Man(a1-6)Man
Method in brief: as §1

Man(b1-4)GlcNAc = molecular target: Man(b1-4)GlcNAc
Method in brief: as §1

Neu5Ac(a2-3)Gal = molecular target: Neu5Ac(a2-3)Gal
Method in brief: as §1

[9] = molecular target: Neu5Ac(a2-3)Gal(b1-3)GalNAc
Method in brief: as §1

[10] = molecular target: Neu5Ac(a2-3)Gal(b1-3)GalNAc(b1-3)Gal(a1-4)Gal(b1-4)Glc
Method in brief: as §1

[11] = molecular target: Neu5Ac(a2-3)Gal(b1-3)GalNAc(b1-4)[Neu5Ac(a2-3)]Gal(b1-4)Glc
Method in brief: as §1

[12] = molecular target: Neu5Ac(a2-3)Gal(b1-3)GalNAc(b1-4)[Neu5Ac(a2-8)Neu5Ac(a2-3)]Gal(b1-4)Glc
Method in brief: as §1

[13] = molecular target: Neu5Ac(a2-3)Gal(b1-3)GalNAc6S
Method in brief: as §1

[14] = molecular target: Neu5Ac(a2-3)Gal(b1-3)GlcNAc
Method in brief: as §1

[15] = molecular target: Neu5Ac(a2-3)Gal(b1-3)GlcNAc(b1-2)Man(a1-3)[Neu5Ac(a2-3)Gal(b1-3)GlcNAc(b1-2)Man(a1-6)]Man(b1-4)GlcNAc(b1-4)GlcNAc
Method in brief: as §1

[16] = molecular target: Neu5Ac(a2-3)Gal(b1-3)GlcNAc(b1-3)Gal(b1-3)GlcNAc
Method in brief: as §1

[17] = molecular target: Neu5Ac(a2-3)Gal(b1-3)GlcNAc(b1-3)Gal(b1-4)GlcNAc
Method in brief: as §1

[18] = molecular target: Neu5Ac(a2-3)Gal(b1-3)GlcNAc(b1-3)GalNAc
Method in brief: as §1

[19] = molecular target: Neu5Ac(a2-3)Gal(b1-3)GlcNAc6S
Method in brief: as §1

[20] = molecular target: Neu5Ac(a2-3)Gal(b1-3)[Fuc(a1-4)]GlcNAc
Method in brief: as §1

[21] = molecular target: Neu5Ac(a2-3)Gal(b1-3)[Fuc(a1-4)]GlcNAc(b1-3)Gal(b1-3)[Fuc(a1-4)]GlcNAc
Method in brief: as §1

[22] = molecular target: Neu5Ac(a2-3)Gal(b1-3)[Fuc(a1-4)]GlcNAc(b1-3)Gal(b1-4)[Fuc(a1-3)]GlcNAc
Method in brief: as §1

[23] = molecular target: Neu5Ac(a2-3)Gal(b1-3)[Neu5Ac(a2-3)Gal(b1-4)]GlcNAc
Method in brief: as §1

[24] = molecular target: Neu5Ac(a2-3)Gal(b1-3)[Neu5Ac(a2-6)]GalNAc
Method in brief: as §1

Neu5Ac(a2-3)Gal(b1-4)Glc = molecular target: Neu5Ac(a2-3)Gal(b1-4)Glc
Method in brief: as §1

[25] = molecular target: Neu5Ac(a2-3)Gal(b1-4)GlcNAc
Method in brief: as §1

[26] = molecular target: Neu5Ac(a2-3)Gal(b1-4)GlcNAc(b1-2)Man(a1-3)[GlcNAc(b1-2)Man(b1-4)GlcNAc(b1-2)Man(a1-6)]Man(b1-4)GlcNAc(b1-4)GlcNAc
Method in brief: as §1

[27] = molecular target: Neu5Ac(a2-3)Gal(b1-4)GlcNAc(b1-2)Man(a1-3)[Neu5Ac(a2-6)Gal(b1-4)GlcNAc(b1-2)Man(a1-6)]Man(b1-4)GlcNAc(b1-4)GlcNAc
Method in brief: as §1

[28] = molecular target: Neu5Ac(a2-3)Gal(b1-4)GlcNAc(b1-3)Gal
Method in brief: as §1

[29] = molecular target: Neu5Ac(a2-3)Gal(b1-4)GlcNAc(b1-3)Gal(b1-3)GlcNAc
Method in brief: as §1

[30] = molecular target: Neu5Ac(a2-3)Gal(b1-4)GlcNAc(b1-3)Gal(b1-4)GlcNAc
Method in brief: as §1

[31] = molecular target: Neu5Ac(a2-3)Gal(b1-4)GlcNAc(b1-3)Gal(b1-4)GlcNAc(b1-3)Gal(b1-4)GlcNAc
Method in brief: as §1

[32] = molecular target: Neu5Ac(a2-3)Gal(b1-4)GlcNAc(b1-3)Gal(b1-4)[Fuc(a1-3)]GlcNAc
Method in brief: as §1

[33] = molecular target: Neu5Ac(a2-3)Gal(b1-4)GlcNAc(b1-3)GalNAc
Method in brief: as §1

[34] = molecular target: Neu5Ac(a2-3)Gal(b1-4)GlcNAc(b1-6)[Gal(b1-3)]GalNAc
Method in brief: as §1

[35] = molecular target: Neu5Ac(a2-3)Gal(b1-4)GlcNAc(b1-6)[Neu5Ac(a2-3)Gal(b1-3)]GalNAc
Method in brief: as §1

[36] = molecular target: Neu5Ac(a2-3)Gal(b1-4)GlcNAc6S
Method in brief: as §1

[37] = molecular target: Neu5Ac(a2-3)Gal(b1-4)[Fuc(a1-3)]GlcNAc
Method in brief: as §1

[38] = molecular target: Neu5Ac(a2-3)Gal(b1-4)[Fuc(a1-3)]GlcNAc(b1-3)Gal
Method in brief: as §1

[39] = molecular target: Neu5Ac(a2-3)Gal(b1-4)[Fuc(a1-3)]GlcNAc(b1-3)Gal(b1-4)GlcNAc
Method in brief: as §1

[40] = molecular target: Neu5Ac(a2-3)Gal(b1-4)[Fuc(a1-3)]GlcNAc(b1-3)Gal(b1-4)[Fuc(a1-3)]GlcNAc(b1-3)Gal(b1-4)[Fuc(a1-3)]GlcNAc
Method in brief: as §1

[41] = molecular target: Neu5Ac(a2-3)Gal(b1-4)[Fuc(a1-3)]GlcNAc(b1-3)GalNAc
Method in brief: as §1

[42] = molecular target: Neu5Ac(a2-3)Gal(b1-4)[Fuc(a1-3)]GlcNAc(b1-6)[Gal(b1-3)]GalNAc
Method in brief: as §1

[43] = molecular target: Neu5Ac(a2-3)Gal(b1-4)[Fuc(a1-3)]GlcNAc(b1-6)[Neu5Ac(a2-3)Gal(b1-3)]GalNAc
Method in brief: as §1

[44] = molecular target: Neu5Ac(a2-3)Gal(b1-4)[Fuc(a1-3)]GlcNAc6S
Method in brief: as §1

[45] = molecular target: Neu5Ac(a2-3)Gal6S(b1-4)GlcNAc
Method in brief: as §1

[46] = molecular target: Neu5Ac(a2-3)Gal6S(b1-4)[Fuc(a1-3)]GlcNAc
Method in brief: as §1

B1: AFL (Aspergillus fumigatus), Q4WW81 (protein)
chain: STPGAQQVLFRTGIAAVNLTNHLRVYFQDVYGSIRESLYEGSWANGTEKNVIGNAKLGSPVAATSKELKHIRVYTLTEGNTLQEFAYDSGTGWYNGGLGGAKFQVAPYSRIAAVFLAGTDALQLRIYAQKPDNTIQEYMWNGDGWKEGTNLGGALPGTGIGATSFRYTDYNGPSIRIWFQTDDLKLVQRAYDPHKGWYPDLVTIFDRAPPRTAIAATSFGAGNSSIYMRIYFVNSDNTIWQVCWDHGKGYHDKGTITPVIQGSEVAIISWGSFANNGPDLRLYFQNGTYISAVSEWVWNRAHGSQLGRSALPPA
Question: What does the source list for B1?
Answer: glycan array binding signal (z-score) [1]: -0.387; glycan array binding signal (z-score) [2]: -0.345; glycan array binding signal (z-score) [3]: -0.391; glycan array binding signal (z-score) [4]: -0.376; glycan array binding signal (z-score) (Man(a1-3)[Man(a1-6)]Man): -0.39; glycan array binding signal (z-score) [5]: -0.395; glycan array binding signal (z-score) [6]: -0.39; glycan array binding signal (z-score) [7]: -0.383; glycan array binding signal (z-score) [8]: -0.34; glycan array binding signal (z-score) (Man(a1-6)Man): -0.386; glycan array binding signal (z-score) (Man(b1-4)GlcNAc): -0.391; glycan array binding signal (z-score) (Neu5Ac(a2-3)Gal): -0.391; glycan array binding signal (z-score) [9]: -0.385; glycan array binding signal (z-score) [10]: -0.385; glycan array binding signal (z-score) [11]: -0.391; glycan array binding signal (z-score) [12]: -0.382; glycan array binding signal (z-score) [13]: -0.387; glycan array binding signal (z-score) [14]: -0.385; glycan array binding signal (z-score) [15]: -0.411; glycan array binding signal (z-score) [16]: -0.389; glycan array binding signal (z-score) [17]: -0.38; glycan array binding signal (z-score) [18]: -0.385; glycan array binding signal (z-score) [19]: -0.392; glycan array binding signal (z-score) [20]: 0.882; glycan array binding signal (z-score) [21]: 0.537; glycan array binding signal (z-score) [22]: 0.527; glycan array binding signal (z-score) [23]: -0.388; glycan array binding signal (z-score) [24]: -0.332; glycan array binding signal (z-score) (Neu5Ac(a2-3)Gal(b1-4)Glc): -0.383; glycan array binding signal (z-score) [25]: -0.376; glycan array binding signal (z-score) [26]: -0.387; glycan array binding signal (z-score) [27]: -0.384; glycan array binding signal (z-score) [28]: -0.175; glycan array binding signal (z-score) [29]: -0.385; glycan array binding signal (z-score) [30]: -0.388; glycan array binding signal (z-score) [31]: -0.39; glycan array binding signal (z-score) [32]: -0.39; glycan array binding signal (z-score) [33]: -0.391; glycan array binding signal (z-score) [34]: -0.391; glycan array binding signal (z-score) [35]: -0.38; glycan array binding signal (z-score) [36]: -0.385; glycan array binding signal (z-score) [37]: 0.383; glycan array binding signal (z-score) [38]: 1.03; glycan array binding signal (z-score) [39]: 0.961; glycan array binding signal (z-score) [40]: 1.83; glycan array binding signal (z-score) [41]: -0.317; glycan array binding signal (z-score) [42]: -0.35; glycan array binding signal (z-score) [43]: -0.339; glycan array binding signal (z-score) [44]: 1.44; glycan array binding signal (z-score) [45]: 0.683; glycan array binding signal (z-score) [46]: 0.939
